Source: patent EP4702992A1, “ANTIBODY-DRUG CONJUGATE” (priority 2023, dated 2024)

B1: D-ADC55-1-8 (conjugate)
heavy: QVQLVQSGAEVKKPGASVKVSCKASGYTFTDYYMKWVRQAPGQRLEWMGAFNLNNGDTFYNQKFKGRVTITRDTSASTAYMELSSLRSEDTAVYYCARDVYGYGDYWGQGTSVTVSSASTKGPSVFPLAPSSKSTSGGTAALGCLVKDYFPEPVTVSWNSGALTSGVHTFPAVLQSSGLYSLSSVVTVPSSSLGTQTYICNVNHKPSNTKVDKKV[human IgG1 Fc with L234A L235A P329A P331S (EU numbers) not given here]
light: DIVMTQSPDSLAVSLGERATINCRASKSVSTSGYSYMHWYQQKPGQPPKLLIYLASNLDSGVPDRFSGSGSGTDFTLTISSLQAEDVAVYYCQHSRELPYTFGGGTKLEIKRTVAAPSVFIFPPSDEQLKSGTASVVCLLNNFYPREAKVQWKVDNALQSGNSQESVTEQDSKDSTYSLSSTLTLSKADYEKHKVYACEVTHQGLSSPVTKSFNRGEC
B2: D-ADC2-1-8 (conjugate)
heavy: B1 heavy
light: B1 light
B3: D-ADC12-1-8 (conjugate)
heavy: B1 heavy
light: B1 light

How the values were obtained:
[1] = DAR determination by reversed-phase chromatography; details: average drug loading per antibody
Experimental: The antibody sample was diluted to about 10 mg/mL with a suitable buffer (consistent with the sample buffer), and an appropriate amount of a reducing agent TCEP was added, with the number of equivalents adjusted according to a target DAR (8-10 equivalents for a target DAR of 8). The pH was then adjusted to 7-7.4 with a Tris buffer, and the antibody was reduced at room temperature for 1-1.5 h. The reduced intermediate state of the antibody could be monitored by CE-SDS. […] The conjugation reaction was performed at room temperature for about 30 min. After the conjugation was completed, the reaction liquid was first filtered, and then subjected to buffer exchange by ultrafiltration using a centrifugal concentration tube to remove excess linker-drug and other small-molecule impurities. After the purification was completed, the resulting sample was subjected to DAR determination by reversed-phase chromatography.
(§1) The concentration of the antibody trastuzumab was adjusted to 10 g/L using a phosphate buffer solution (pH 7.0), and the antibody solution after buffer exchange was placed into a centrifuge tube, followed by the addition of 8.0 equivalents of 5 mM TCEP (Adamas-beta, Ltd.). […] The average drug loading per antibody was determined by reversed-phase chromatography.
as §1, with “farletuzumab or farletuzumab FcS” for “trastuzumab”, “7.0” for “8.0”
as §1, with “33B” for “trastuzumab”, “10.0” for “8.0”, “chromatography. […]” for “chromatography.”

A431 = experiment: In vitro cytotoxicity of DLL3-ADC (CTL Plus); assay type: cell-based; details: A431 (DLL3-negative), 6 days
Experimental: (§2) The DLL3-positive cell strains NCI-H82, SHP77, NCI-H526, and NCI-H209 and the DLL3-negative cell strains A431 and NCI-H69 were used to evaluate the in vitro cytotoxicity mediated by D-ADC55-1-8. Cells were harvested, cultured with serially diluted D-ADC55-1-8, and then incubated at 37 °C. The viability was determined using CTL Plus after 6 days. Readings and analyses were performed on EnVision 2105 (PerkinElmer) to determine IC50 (half-maximal inhibitory concentration) values.
(§3) Experimental procedures: The test cells were adjusted to a cell density of 6.7 × 10^4 cells/mL and seeded into a 96-well plate at 75 µL/well. The plate was incubated overnight in an incubator at 37 °C with 5% CO2. 5-fold gradient dilutions of D-ADC55-1-8 (0-100 nM) with a total of 9 concentration gradients were added to the cells at 75 µL/well. The blank control was the medium for the corresponding cells. Two replicate wells were set for each concentration. After the cells were cultured in an incubator at 37 °C with 5% CO2 for 6 days, 50 µL of CTL Plus (manufacturer: Beyotime, Cat. No.: C0068XL) luminescent reagent was added, and the cells were incubated in the dark at room temperature for 10 min. The chemiluminescence detection was performed on an EnVision 2105 microplate reader. […] The data were processed and analyzed using GraphPad Prism, and IC50 was calculated. […] Table 22: In vitro cytotoxicity of DLL3-ADC

NCI-H209 = experiment: In vitro cytotoxicity of DLL3-ADC (CTL Plus); assay type: cell-based; details: NCI-H209, 6 days
Experimental: as §2, §3

NCI-H526 = experiment: In vitro cytotoxicity of DLL3-ADC (CTL Plus); assay type: cell-based; details: NCI-H526, 6 days
Experimental: as §2, §3

NCI-H69 = experiment: In vitro cytotoxicity of DLL3-ADC (CTL Plus); assay type: cell-based; details: NCI-H69, 6 days
Experimental: as §2, §3

NCI-H82 = experiment: In vitro cytotoxicity of DLL3-ADC (CTL Plus); assay type: cell-based
Experimental: as §2, §3

SHP77 = experiment: In vitro cytotoxicity of DLL3-ADC (CTL Plus); assay type: cell-based; details: SHP77, 6 days
Experimental: as §2, §3

SHP77 xenograft tumor = experiment: Pharmacodynamic evaluation in SHP77 xenograft tumor mouse model; assay type: in vivo, nu/nu nude mice; details: SHP77, 1 mg/kg, single intravenous injection; for Mean tumor volume (Day 0): Day 0 (day of grouping); for Mean tumor volume (Day 0) / Mean tumor volume (Day 22): mean ± standard error; for TGI(%) / Mean tumor volume (Day 22): Day 22
Excerpt: Cells were taken from the DLL3-positive cell strain SHP77 and inoculated into the right forelimb axilla of nu/nu nude mice at 10^7 cells/mouse (7 mice per group). When the mean tumor volumes of the mice reached about 100 mm^3 (groups 1-6), the mice were randomly grouped and subjected to administration by a single intravenous injection. The day of grouping was defined as Day 0, and the administration was started on Day 0. After tumor grafting, the experimental animals were routinely monitored for tumor growth and the effect of treatment on the normal behavior, specifically the activity, food and water intake, body weight gain or loss (the body weight was measured twice a week), and abnormalities in eyes, fur, and other aspects. Calculation formula for tumor volume: Tumor volume (mm^3) = 1/2 × (a × b^2) (where a represents the long diameter, and b represents the short diameter). Table 23: Pharmacodynamic evaluation of test drugs in human small cell lung cancer xenograft SHP-77 mouse model

NCI-H526 xenograft tumor = experiment: Pharmacodynamic evaluation in NCI-H526 xenograft tumor mouse model; assay type: in vivo, nu/nu nude mice; details: NCI-H526, 3 mg/kg, single intravenous injection
Excerpt: (§4) Cells were taken from the DLL3-positive cell strain NCI-H526 and inoculated into the right forelimb axilla of nu/nu nude mice at 10^7 cells/mouse (3 mice per group). When the mean tumor volumes of the mice reached about 160 mm^3 (groups 1-2), the mice were randomly grouped and subjected to administration by a single intravenous injection. The day of grouping was defined as Day 0, and the administration was started on Day 0. After tumor grafting, the experimental animals were routinely monitored for tumor growth and the effect of treatment on the normal behavior, specifically the activity, food and water intake, body weight gain or loss (the body weight was measured twice a week), and abnormalities in eyes, fur, and other aspects. Calculation formula for tumor volume: Tumor volume (mm^3) = 1/2 × (a × b^2) (where a represents the long diameter, and b represents the short diameter). Table 24: Pharmacodynamic evaluation of test drug in human small cell lung cancer xenograft NCI-H526 mouse model

NCI-H69 xenograft tumor = experiment: Pharmacodynamic evaluation in NCI-H69 xenograft tumor mouse model; assay type: in vivo, nu/nu nude mice; details: NCI-H69, 3 mg/kg, single intravenous injection
Excerpt: as §4, with “NCI-H69” for “NCI-H526”, “140 mm^3,” for “160 mm^3 (groups 1-2),”, “25:” for “24:”

[2] = Day 0 (day of grouping), mean ± standard error

Row | Molecule | DAR [1] | IC50 (A431) [nM] | IC50 (NCI-H209) [nM] | IC50 (NCI-H526) [nM] | IC50 (NCI-H69) [nM] | in vitro cytotoxicity (NCI-H82; DLL3-positive cell strains (NCI-H82, SHP77, NCI-H526, NCI-H209), 6 days, in words) | IC50 (NCI-H82; NCI-H82, 6 days, CTL Plus) [nM] | IC50 (SHP77) [nM] | Mean tumor volume (Day 0) (SHP77 xenograft tumor) [mm^3] | TGI(%) (SHP77 xenograft tumor) | Mean tumor volume (Day 22) (SHP77 xenograft tumor) [mm^3] | Mean tumor volume (Day 0) (NCI-H526 xenograft tumor; [2]) [mm^3] | TGI(%) (NCI-H526 xenograft tumor; Day 21) | Mean tumor volume (Day 21) (NCI-H526 xenograft tumor; Day 21, mean ± standard error) [mm^3] | Mean tumor volume (Day 0) (NCI-H69 xenograft tumor; [2]) [mm^3] | Mean tumor volume (Day 14) (NCI-H69 xenograft tumor; Day 14, mean ± standard error) [mm^3] | TGI(%) (NCI-H69 xenograft tumor; table head Day 14)
1 | B1 | 8.0 | > 100 | 1.07 | 16.7 | > 100 | good in vitro cytotoxicity | 4.4 | 36.6 | 104.1±14.5 | 98.1 | 158.3±82.4 | 162.7±21.1 | 113.0 | 57.3±49.7 | 142.7±53.2 | 323.7±244.6 | 76.5
2 | B2 | 8.0 |  |  |  |  |  |  |  | 104.1±15.6 | 96.6 | 199.2±166.9 |  |  |  |  |  | 
3 | B3 | 8.0 |  |  |  |  |  |  |  | 104.3±14.7 | 97.1 | 187.7±63.9 |  |  |  |  |  | 
